In the supplement of paper PMC11417369:
This is one part of the list.

System: PfSIP2 AP2 domain 1 (GST-tagged)
Assay: gcPBM binding intensity (ln(normalized median fluorescence intensity)); higher = stronger DNA binding
Procedure, shortened: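 Binding intensity is defined as the maximum Masliner-normalised natural-log median intensity across replicate spots for either probe orientation. It was measured on an Agilent 4 × 180k array of primer-extended double-stranded 36-bp intergenic genomic probes and negative controls, to which GST-tagged P. falciparum DNA-binding domains made in E. coli were applied for 1 h in 1× PBS with 1% milk, 0.2 mg/ml BSA, 0.5% salmon testes DNA and 0.03% Triton X-100. Detection was by Alexa488 anti-GST antibody and scanning at 488 nm.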

Row | Sequence | gcPBM binding intensity (ln)
1 | TACAATGAACATGAAACACACAAAAAAAAAAAAAAA [CACACA_site1544] | 6.98
2 | ACATAGTAAATATTATGTACATAATATATACATTTA [XGTACX_site7500] | 7.1
3 | TACATATATATAATATATATATCATCATATTTTCTT [XGTACX_negctrl_site478] | 6.82
4 | CTTAAACTTTTAAATACACACATACAGACATACACA [CACACA_site6401] | 7.12
5 | TTTACTTTTTTTATATATTATTTATTATATAATATA [CACACA_negctrl_site211] | 6.96
6 | TAAAAATGATCAAAGGGTACAGTATTAATTAAAAAA [XGTACX_site1079] | 7
7 | TTTATTTATATAATTACACACATATATACTCAAATG [CACACA_site5543] | 7.04
8 | ATATGTACTATACGCACACACACTCACATATTTATA [CACACA_site7510] | 7.49
9 | TTCTTAATTCATACCATCAAAACATTTATTCATATC [CACACA_negctrl_site43] | 6.99
10 | ATAGGGTTTCTACTTTAACATTTTTGAAATATTATA [GTGCAC_negctrl_site260] | 7.03
11 | TATTATAAATAAATAGAAAAAAAAATGATAAATGGA [CACACA_negctrl_site865] | 6.92
12 | TATTTAGACATAACAAATAGACTAACAAAAGATTTA [GTGCAC_negctrl_site614] | 6.78
13 | ATAATAAATACACTAGTGCAAAATAATATATGTACT [GTGCAC_site9707] | 8.13
14 | ATTACCATATTTTGTACACACATCTTTATCTCAATA [CACACA_site3217] | 7.23
15 | TAAAAATTAAAGTGTACACATATATATATATATATA [CACACA_site4781] | 9.62
16 | TTTTATGTTTATGTGGTGCATGTTTTGAAGAAAATA [GTGCAC_site9616] | 10.3
17 | TATAAACCGACGAAAACACACATATGTAAATATATA [CACACA_site491] | 7.12
18 | AAACCTATGTATATTATACACACTCCAAACTATTAT [CACACA_site8536] | 6.98
19 | CGGGGGTAGTTTTATGCACACGTTTATTAATGCTTC [CACACA_site5717] | 8.1
20 | ACATGAATATATACACGTACATATATACATATATAT [XGTACX_site5872] | 7.42
21 | ACCAATAATATACATACACACATAAATGTTTATATA [CACACA_site4328] | 7.21
22 | TGAAAAACTATCAGAGTGCATATATAGCTCGATACA | 8.07

Row | Sequence | gcPBM binding intensity (ln)
23 | TAAAATAATATATGGTGTACACAAAAGTATAAATAA [XGTACX_site4991] | 7.03
24 | ATATAAAAAAAATTTAGTACATATATATATATATAT [XGTACX_site8635] | 9.47
25 | AAAAAAATAATTAACACACACATGTATATCTATATA [CACACA_site3139] | 6.77
26 | TATATATATATATTATGTACTCATTTATTATCTTTT [XGTACX_site8051] | 9.5
27 | ATATGATTTGGATGTAGTACATATTTTTTTATGTTT [XGTACX_site1929] | 6.96
28 | AACCAAATTTCACCATGTACATATTGATAAATATAT [XGTACX_site1374] | 7.14
29 | GCACCAAAAAAAAGACGTACAGTTATATTAAAATAG [XGTACX_site8926] | 7.89
30 | AAATGAACAAGTGGCACACACACATTCTAACTAATT [CACACA_site3203] | 6.93
31 | TGATTATCCTTCAGGAGTACATATAATATAATATAT [XGTACX_site1479] | 6.95
32 | AATGAAAAGAAATAATAAATAAATGATGACCAGCTG [GTGCAC_negctrl_site398] | 6.76
33 | ATATATATATGAATCACACACAAAAAATATAGAGAT [CACACA_site3913] | 8.78
34 | TTATAAAGAAAAAATTGCTTTAAAAGAAAGATTACA [CACACA_negctrl_site960] | 6.51
35 | AAAAACAAAATTTGGAGTACAGTTATAATATTATTA [XGTACX_site5245] | 7.18
36 | AATGAACAGACGAGCACACACACACCCATATATATA [CACACA_site1018] | 7.58
37 | TAATGTATTATTTAATGTACTTAAAAAATAAATAAA [XGTACX_site3296] | 6.96
38 | ACCTTTAATAAATACACACACATAAAAAAAATATAT [CACACA_site5086] | 7.94
39 | TATTATATGAATAATTGTACGAAATTTAAAAGACAA [XGTACX_site7558] | 7.36
40 | GGGGAGCTATCTCCTGCACACACAATTTTTTTTTTT [CACACA_site8703] | 7.45
41 | CACAAATATATACATACACACATATATACGCATATA [CACACA_site395] | 7.29
42 | ATATATTCATTTTTATGTACGTAAATTGTAAATTGG [XGTACX_site8242] | 7.05
43 | AAAATAATAATAAAAAGTACATGTGTATATAATAAA [XGTACX_site754] | 7.27
44 | TGCATTATTTTATGAAGTACATATGAACAAAAAATT [XGTACX_site2185] | 7.11
